Measurements from the supplement of paper PMC3334620.
The full ranking holds about 33,000 sequences; the median of “E-score (-0.5 to 0.5)” is about -0.04, and the highest 2% start at about 0.36. The list shows a part of the results.

What follows are sequences tested against T1, Hmlalpha2 (UniProt P0CY09) (assay: PBM E-score (8-mer binding enrichment) (E-score (-0.5 to 0.5)); higher = stronger / more preferred TF binding; most listed sequences are background and not binding sites). Details: protein concentration: 200 nM; construct: GST-full length.
T1 sequence: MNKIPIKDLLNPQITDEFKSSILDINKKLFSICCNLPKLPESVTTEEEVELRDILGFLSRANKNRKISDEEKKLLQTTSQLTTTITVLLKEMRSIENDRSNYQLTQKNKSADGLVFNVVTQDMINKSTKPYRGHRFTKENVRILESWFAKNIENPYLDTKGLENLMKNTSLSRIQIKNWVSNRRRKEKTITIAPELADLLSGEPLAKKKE
Method in brief: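 Yeast transcription factors, full-length or as DNA-binding domains, were expressed with a GST tag using PURExpress in vitro transcription/translation. At about 100-200 nM they were applied to universal all-10-mer Agilent arrays, double-stranded by primer extension on fresh or once-stripped slides. Fluorescent anti-GST detected bound protein, and masliner normalised the scans. E-scores for ungapped eight-base words, pooled with reverse complements, came from the Universal PBM Analysis Suite.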

| Sequence | PBM E-score |
| --- | --- |
| AGGGGGAG | -0.384 |
| ACTGAAGA | -0.0546 |
| ATCTGAAT | 0.059 |
| CCCGGCGC | -0.358 |
| CCGTTGCC | -0.229 |
| ATCTGCGG | -0.0808 |
| ACCAATTG | -0.0218 |
| CTCACAGC | -0.15 |
| CACCGAAA | 0.0638 |
| AAATCCTA | 0.0616 |
| ATCCCCAG | -0.255 |
| ACGCCTCC | -0.183 |
| AGAACCGG | -0.107 |
| ACCCGACG | -0.218 |
| CATAGGAG | -0.00675 |
| GCGCCTAA | -0.0972 |
| ACTAACCA | 0.215 |
| AGAGATTA | 0.0004 |
| AGTCCATA | -0.174 |
| AATCTTAC | 0.199 |
| CGGCAGCC | -0.341 |
| ACTCGGCT | -0.252 |
| GATCCGAC | -0.0751 |
| CATGGTGG | -0.00749 |

| Sequence | PBM E-score |
| --- | --- |
| CGTATTCC | 0.288 |
| GCAGACCC | -0.322 |
| AAGCACAT | 0.111 |
| CTTTCCAA | -0.0704 |
| AGACGTCA | -0.0886 |
| AACTCGGA | -0.168 |
| CACGAGCC | -0.0745 |
| AAGTTTGA | -0.0014 |
| AGCTTGCA | -0.0594 |
| AGTCTTAC | 0.0662 |
| ACGTCCGA | -0.102 |
| AAGATGTC | 0.0311 |
| AATCGTGT | 0.406 |
| AACGCACG | 0.243 |
| GAATCTGA | -0.03 |
| TCACACAA | 0.23 |
| ACAATTTA | 0.173 |
| GGCAGCAA | -0.0543 |
| AATCCCGG | -0.228 |
| GGCCGGCC | -0.165 |
| ATGCGACA | 0.183 |
| ACACCCTC | -0.155 |
| CTTCTGCA | -0.0586 |
| GCGAACGA | -0.0916 |

| Sequence | PBM E-score |
| --- | --- |
| CTCCAGGC | -0.185 |
| CTTGCGGC | -0.273 |
| CCCTATCA | -0.192 |
| ACCTATGA | -0.0629 |
| ACAATTGT | 0.0794 |
| AACCACTC | -0.0151 |
| AGTAACCA | -0.0197 |
| CGAGCGAC | -0.062 |
| AAGCATCT | -0.178 |
| AACTAACA | 0.357 |
| AATATCCG | 0.0481 |
| GTCAGTAA | 0.133 |
| AGAGCTAT | 0.0171 |
| ACCGGAAG | -0.0142 |
| CATCCCTA | -0.0548 |
| CCTACTGC | -0.175 |
| GTCTACAC | 0.364 |
| CGCTCTAG | -0.236 |
| AGGTTCCC | -0.16 |
| CAGGACGA | -0.0247 |
| AAACTGCA | -0.0705 |
| ACGAGAAT | 0.0508 |
| CAGTATTA | 0.149 |
| AATTGACC | 0.0347 |

| Sequence | PBM E-score |
| --- | --- |
| CTATCCCC | -0.345 |
| CGCACTAG | -0.0882 |
| AACATCCC | 0.0414 |
| GGGACGCA | -0.237 |
| CAACCTAC | -0.00578 |
| AAGTAGGG | -0.0271 |
| AACTTTTC | 0.117 |
| AACTGGGC | -0.236 |
| AGGGCCGG | -0.355 |
| GTGCAGCA | -0.284 |
| CATGGGCA | -0.149 |
| AATTCACG | 0.076 |
| CCCGTGGC | -0.271 |
| GCCACCTA | -0.151 |
| AATCCAAA | -0.0592 |
| GCAAGTGA | -0.0238 |
| TAGGACAA | 0.0501 |
| AGGTTACA | 0.14 |
| GCTGTTCA | 0.167 |
| GAATACAC | 0.451 |
| ACAGAATA | 0.189 |
| CCGGGGAC | -0.351 |
